Measurements reported in PubChem BioAssay AID686978 (National Center for Advancing Translational Sciences (NCATS), 2013).
The campaign covered roughly 420,000 compounds. About 64,000 (15%) were called active. Inconclusive means that the source gave no clear call. Such entries were picked first, then a sample of the others. The call rests on the fitted dose curve; in most records, active means well fitted inhibition curve with a large enough effect; inconclusive means small, poorly fitted or top-dose-only effect; inactive means flat fitted curve, though single readings scatter. No potency is given beside an inconclusive call; the fits are too rough.

assay: qHTS for Inhibitors of human tyrosyl-DNA phosphodiesterase 1 (TDP1): qHTS in cells in absence of CPT; conditions: DT40 Tdp1-/- hTDP1 cells, no CPT, ATP luminescence, 48 h; activity change, negative = growth inhibition: at 46.2 µM (top of the series); further: nearly all actives have a fitted effect of over 55% in size
In short: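 Stably hTDP1-transfected Tdp1-null chicken DT40 cells were treated with library compounds minus camptothecin and grown for at least 48 hr at 37 °C, after which cellular ATP was quantified by luminescence.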
On the % scale 0 is the no-effect control and ±100 the full control effect; potency means the concentration at half of the fitted maximal effect; tags describe the fitted curve by direction and shape.

| Compound | Potency | activity change, negative = growth inhibition |
| --- | --- | --- |
| O=C(Cn1c(=O)n(Cc2nc(-c3ccccc3)no2)c(=O)c2ccccc21)Nc1cccc(Cl)c1 | inconclusive [inhibitor, single point] | – |
| O=c1[nH]c2ccccc2nc1C(Nc1ccccc1)c1ccccc1 (stereo not drawn) | inconclusive [inhibitor, single point] | – |
| O=c1[nH]c(/C=C/c2ccccc2F)nc2ccccc12 | active: 2.91 µM | – |
| COc1ccc(-c2nnc(SCC(=O)Nc3ccc(C)c(C)c3)s2)cc1 | inconclusive [inhibitor, single point] | – |
| CCOc1ccc(NC(=S)NC(=O)/C=C/c2ccc(Br)cc2)c([N+](=O)[O-])c1 | inconclusive [inhibitor, partial curve, poor fit] | – |
| NC(=O)/C(=C\c1ccccc1)NC(=O)c1ccc(NC(=O)c2ccccc2)cc1 | – | inactive: -3.22% |
| CCOc1ccc(N2C(=O)c3[nH]nc(-c4ccc(OC)cc4)c3C2c2cccs2)cc1 (stereo not drawn) | active: 25.9 µM | – |
| COc1ccc(S(=O)(=O)CC(=O)c2cc(C)c(O)c(C)c2)cc1 | inconclusive [inhibitor, partial curve] | – |
| CSc1cccc(N2CC(C(=O)N(Cc3nnc(-c4ccccc4Cl)o3)C3CC3)CC2=O)c1 (stereo not drawn) | inconclusive [inhibitor, single point] | – |
| CC(NC(=O)c1cc(-c2ccncc2)nc2ccc(Cl)cc12)C1CCCO1 (stereo not drawn) | inconclusive [inhibitor, single point] | – |
| O=C(CSc1nnc(COc2ccc(Cl)cc2)o1)Nc1nccs1 | – | inactive: 5.01% |
| CCOc1ccc2nc(SCC(=O)NC(=O)NCc3ccco3)sc2c1 | active: 25.9 µM | – |
| COc1ccc(CN(C)C(=O)C(Cc2ccccc2)NC(=O)c2ccccc2)c(OC)c1OC (stereo not drawn) | inconclusive [inhibitor, full curve, poor fit] | – |
| CSc1ccc(-c2cc3c(c4c2ccn4C)C2CCC3C2)cc1 (stereo not drawn) | inconclusive [inhibitor, single point] | – |
| N#C/C(=N\Nc1cccc(C(F)(F)F)c1)C(=O)c1ccsc1 | active: 5.8 µM | – |
| CCOc1cccc2sc(N(CCN(C)C)C(=O)c3cc4ccccc4cc3OC)nc12 | inconclusive [inhibitor, single point] | – |
| O=C(CO/N=C/c1ccc(OC(F)F)cc1)N1CCc2ccccc21 | inconclusive [inhibitor, partial curve] | – |
| CCCN1C(=O)c2cc(C(=O)Nc3ccccc3C)ccc2C1Nc1ccccc1C (stereo not drawn) | inconclusive [inhibitor, single point] | – |
| O=C(/C=C/c1ccccc1)N1CCN(c2c(Cl)cccc2[N+](=O)[O-])CC1 | active: 16.4 µM | – |
| Cc1ccc([N+](=O)[O-])c(OCC(=O)OCC(=O)c2ccccc2)c1 | – | inactive: -3.24% |
| CCc1ccccc1NC(=O)CCCN1C(=O)CCn2nc(-c3cn(C)c4ccccc34)cc21 | – | inactive: -22.6% |
| Cc1cccc(C)c1NC(=O)CSc1n[nH]c(=O)n1C1CC1 | – | inactive: -6.54% |

| Compound | Potency | activity change, negative = growth inhibition |
| --- | --- | --- |
| COc1ccc(CCNC(=O)c2cc3ccccn3n2)c(OC)c1OC | inconclusive [inhibitor, single point] | – |
| COC(=O)c1cc(NC(=O)c2cc3sccc3n2Cc2ccc(Cl)cc2)cc(C(=O)OC)c1 | inconclusive [inhibitor, partial curve] | – |
| FC(F)(F)c1ccccc1Cc1c(-c2cccc(Cl)c2)nc2ccc(Cl)cn12 | inconclusive [inhibitor, single point] | – |
| Cc1cc(C)n(CC(O)CN(c2ccccc2)S(=O)(=O)c2ccccc2)n1 (stereo not drawn) | inconclusive [inhibitor, single point] | – |
| O=C(c1nc2n(n1)C(c1ccc(Cl)cc1)C=C(c1ccccc1)N2)N1CCOCC1 (stereo not drawn) | inconclusive [inhibitor, single point] | – |
| CCOCc1cc(CN2CCN(c3ccccc3OC)CC2)c(O)c2ncccc12 | active: 5.17 µM | – |
| O=C(Nc1csc([N+](=O)[O-])c1)Nc1ccccc1Cl | active: 23.1 µM | – |
| C[C@H](CO)N1C[C@H](C)[C@@H](CN(C)CC2CCCCC2)Oc2ccc(NS(C)(=O)=O)cc2C1=O | – | inactive: 1.66% |
| CO/N=C(\Cn1ncc(NC2CCCCC2)c(Br)c1=O)c1ccc(Cl)cc1 | inconclusive [inhibitor, single point] | – |
| COc1ccc(C2CC(c3ccccc3)=NN2C(=O)COC(=O)C2(C)CC2(Cl)Cl)cc1 (stereo not drawn) | inconclusive [inhibitor, single point] | – |
| N#Cc1ccccc1COC(=O)c1cccnc1N | inconclusive [inhibitor, partial curve, poor fit] | – |
| Cc1ccc(-c2noc(CCCC(=O)Nc3cccnc3)n2)cc1 | active: 20.6 µM | – |
| COC(=O)c1ccc(Cn2c(C)c(C(=O)NCc3cccs3)sc2=O)o1 | inconclusive [inhibitor, single point] | – |
| CCCC(C(=O)NC1CCCC1)N(Cc1cccs1)C(=O)c1snc(C(N)=O)c1N (stereo not drawn) | – | inconclusive: -31.6% [inhibitor] |
| COc1ccc(NC(=O)C(=O)NCCN2CCN(C(=O)C(c3ccccc3)c3ccccc3)CC2)cc1 | inconclusive [inhibitor, single point] | – |
| O=C(CN1CCN(c2ccccc2F)CC1)c1ccc(O)cc1O | inconclusive [inhibitor, single point] | – |
| Cc1ccc(OCC(=O)Nc2ccc3c(c2)nc(CCN2CCCCC2)n3C)cc1 | inconclusive [inhibitor, single point] | – |
| Cc1c(C)c2ccc(OC(C)C(=O)NC3CCN(Cc4ccccc4)CC3)cc2oc1=O (stereo not drawn) | inconclusive [inhibitor, partial curve] | – |
| COc1ccc(Br)cc1S(=O)(=O)n1ccnc1 | – | inactive: -24.1% |
| Cc1nnc(NC(=O)C2CCN(S(=O)(=O)c3ccc(F)c(Cl)c3)CC2)o1 | – | inactive: 6.74% |
| CN(CC(=O)Nc1cccc(F)c1)C(=O)c1cccnc1Sc1ccccc1 | inconclusive [inhibitor, single point] | – |
